In PubChem BioAssay AID624296 (National Center for Advancing Translational Sciences (NCATS), 2012):
About 9,900 (2.8%) of roughly 350,000 compounds were called active. Inconclusive results, whose numbers are uncertain, are shown with a selection of clear calls. Calls follow the shape of the dose curve; as a rule, active = well fitted activation curve with a large enough effect; inconclusive = small, poorly fitted or top-dose-only effect; inactive = no such curve, though single readings can be large or run the other way. Potencies of inconclusive entries are left out as doubtful fits.

experiment: A quantitative high throughput screen for small molecules that induce DNA re-replication in MCF 10a normal breast cells.; also: nearly all actives have a fitted effect of over 50% in size; as to activity, positive = re-replication: % of control where 0% means no effect; settings: MCF 10A DNA re-replication, Hoechst nuclear intensity, 48 h; activity, positive = re-replication: at 46.1 µM (top of the series)
Potency is read from the fitted curve at half-maximal effect; tags tell the direction and shape of the fitted curve.

**Q.** Which Potency does the source give for `O=C(COc1ccccc1[N+](=O)[O-])N(C1CCCCC1)C1CCS(=O)(=O)C1` (stereo unspecified) here?
**A.** Its Potency is inconclusive [activator, single point].

**Q.** For `CCOC(=O)CC(=O)CSc1nc2c(C)c(C)ccc2cc1C`, which Potency is on record?
**A.** The Potency was inconclusive [activator, partial curve, poor fit].

**Q.** Which “activity, positive = re-replication” value does the source give for `COc1ccc(/C=N/NC(=O)c2c(-c3ccccc3)noc2C)cc1[N+](=O)[O-]` here?
**A.** The value was inactive: 9.76%.

**Q.** For `Cc1ccc(Sc2ccc(NC(=O)c3ccc(S(C)(=O)=O)cc3Cl)cc2)cc1`, which Potency is on record?
**A.** Its Potency is inconclusive [activator, partial curve].

**Q.** Which “activity, positive = re-replication” value does the source give for `CCOC(=O)c1cnc2c(Cl)cc(Cl)cc2c1NCCOCCO` here?
**A.** The value was inactive: -3.75%.

**Q.** Which Potency does the source give for `COC(=O)c1sccc1NC(=O)Nc1ccc(Cl)c(Cl)c1` here?
**A.** Its Potency is inconclusive [activator, partial curve, poor fit].

**Q.** Which “activity, positive = re-replication” value does the source give for `CCOc1ccc(Cl)cc1/C=C1/C(=O)ON=C1C` here?
**A.** Its value is inactive: 1.24%.

**Q.** With `O=C(c1ccco1)N1CCCC(c2nc(-c3ccc(S(=O)(=O)NCc4ccccc4)cc3)no2)C1` (stereo unspecified) as the molecule, how does the Potency read?
**A.** Its Potency is active: 18.4 µM.

**Q.** With `COc1ccc(OC)c(NC(=O)CN2CCC(NC(=O)c3ccccc3C)CC2)c1` as the molecule, how does the Potency read?
**A.** The Potency was inconclusive [activator, partial curve, poor fit].

**Q.** With `COc1ccc(N2C(=O)CC(N(CCc3ccc(OC)c(OC)c3)C(=S)Nc3ccccc3)C2=O)cc1` (stereo unspecified) as the molecule, how does the Potency read?
**A.** Its Potency is inconclusive [activator, single point].

**Q.** With `CN(C)CC(=O)c1ccc(-c2ccccc2)cc1` as the molecule, how does the Potency read?
**A.** The Potency was inconclusive [activator, single point].

**Q.** With `CCN(CC)S(=O)(=O)c1ccc(Cl)c(C(=O)OCC(=O)c2c(N)n(C)c(=O)n(C)c2=O)c1` as the molecule, how does the Potency read?
**A.** The Potency was inconclusive [activator, single point].

**Q.** Which “activity, positive = re-replication” value does the source give for `COc1ccc(C(NC(=O)c2ccc(F)cc2)c2ccccc2)cc1` (stereo unspecified) here?
**A.** The value was inactive: 2.18%.

**Q.** With `CCc1ccc(NC(=O)CS(=O)CC(=O)Nc2ccc(N3CCOCC3)cc2)cc1` (stereo unspecified) as the molecule, how does the Potency read?
**A.** The Potency was inconclusive [activator, single point].

**Q.** With `CCOC(=O)c1sc(N/N=C/c2cc(Br)c(O)c(OC)c2)nc1C` as the molecule, how does the Potency read?
**A.** The Potency was inconclusive [activator, single point].

**Q.** For `COc1ccc(Cl)cc1NC(=O)c1ccc2c(SCC(=O)O)c3c(nc2c1)CCCC3`, which Potency is on record?
**A.** Its Potency is inconclusive [activator, single point].

**Q.** With `N#Cc1c(Nc2ccccc2)s[nH]c1=O` as the molecule, how does the Potency read?
**A.** Its Potency is inconclusive [activator, single point].

**Q.** For `C=CCN1C=C2C(=O)C(C)(OC(=O)c3cnc4ccccc4n3)C(=O)C=C2C=C1/C=C/COC` (stereo unspecified), which Potency is on record?
**A.** Its Potency is inconclusive [activator, single point].

**Q.** With `CC(C)NC(=O)Nc1ccc2c(c1)C(=O)N([C@H](C)CO)C[C@H](C)[C@@H](CN(C)S(=O)(=O)c1cccs1)O2` as the molecule, how does the Potency read?
**A.** Its Potency is inconclusive [activator, partial curve, poor fit].

**Q.** For `COC(=O)COc1ccc(/C=N/NS(=O)(=O)c2ccccc2)cc1`, which “activity, positive = re-replication” value is on record?
**A.** The value was inactive: -3.53%.

**Q.** With `Nc1ccc2nc(-c3ccccn3)[nH]c2c1` as the molecule, how does the “activity, positive = re-replication” value read?
**A.** Its value is inactive: 15%.

**Q.** For `Cc1ccc2cc(/C=N/NC(=O)[C@H]3C[C@@H]3c3ccccc3)c(Cl)nc2c1`, which Potency is on record?
**A.** Its Potency is inconclusive [activator, partial curve, poor fit].

**Q.** With `CC1CCN(CCOCCOc2ccc(Cl)cc2Br)CC1` as the molecule, how does the Potency read?
**A.** The Potency was inconclusive [activator, single point].

**Q.** With `O=C(N/N=C\C=C\c1ccco1)C1COc2ccccc2O1` (stereo unspecified) as the molecule, how does the Potency read?
**A.** Its Potency is inconclusive [activator, single point].

**Q.** Which Potency does the source give for `COc1ccc(N/C=C(\C#N)c2nc3ccccc3n2C)c(OC)c1` here?
**A.** The Potency was inconclusive [activator, single point].

**Q.** With `O=C(c1cc2ccccc2o1)N1CCN(c2ncccn2)CC1` as the molecule, how does the “activity, positive = re-replication” value read?
**A.** The value was inactive: -4.53%.

**Q.** Which “activity, positive = re-replication” value does the source give for `O=C(CSc1nnc(-c2n[nH]c3ccccc23)n1-c1ccccc1)Nc1cccc(Cl)c1` here?
**A.** Its value is inactive: -49.1%.

**Q.** With `Cc1ccc(C(=O)/C=C/c2ccc3c(c2)OCO3)o1` as the molecule, how does the Potency read?
**A.** Its Potency is inconclusive [activator, single point].

**Q.** For `O=C1COc2ccc(-c3csc(NCCc4ccccc4)n3)cc2N1`, which “activity, positive = re-replication” value is on record?
**A.** The value was inactive: -0.0686%.

**Q.** For `O=C1/C(=C/c2cccnc2)CC/C1=C\c1cccnc1`, which Potency is on record?
**A.** Its Potency is inconclusive [activator, partial curve, poor fit].

**Q.** With `COc1cccc(-c2csc(N3CCN(C(=S)NCC(C)C)CC3)n2)c1` as the molecule, how does the Potency read?
**A.** The Potency was inconclusive [activator, single point].

**Q.** With `CC(CN1CCOCC1)OC(=O)C(c1ccccc1)c1ccccc1` (stereo unspecified) as the molecule, how does the “activity, positive = re-replication” value read?
**A.** Its value is inactive: 0.976%.

**Q.** Which “activity, positive = re-replication” value does the source give for `COc1ccc(NC(=O)CC(C)c2ccccc2)cc1S(=O)(=O)N1CCOCC1` (stereo unspecified) here?
**A.** Its value is inactive: 10.6%.

**Q.** With `O=C(O)C1=C[C@@H](c2coc3ccccc3c2=O)C[C@@H](OCc2ccc(CO)cc2)O1` as the molecule, how does the Potency read?
**A.** The Potency was inconclusive [activator, partial curve, poor fit].

**Q.** For `Cc1ccc(S(=O)(=O)NCC(=O)NCC(=O)N(C)Cc2ccc3ccccc3c2)cc1C`, which Potency is on record?
**A.** The Potency was inconclusive [activator, single point].

**Q.** Which Potency does the source give for `CCN1C(=NCCc2cccnc2)N[C@@H](c2ccccc2)C(C(=O)OC)=C1C` here?
**A.** The Potency was inconclusive [activator, full curve, poor fit].

**Q.** With `COc1ccc(NC(=O)C2CCCO2)cc1Cl` (stereo unspecified) as the molecule, how does the Potency read?
**A.** The Potency was inconclusive [activator, partial curve, poor fit].

**Q.** With `CC(C)NC(=O)Nc1cccc2c1O[C@H](CN(C)S(=O)(=O)c1cccs1)[C@@H](C)CN([C@H](C)CO)C2=O` as the molecule, how does the Potency read?
**A.** Its Potency is inconclusive [activator, partial curve, poor fit].

**Q.** Which Potency does the source give for `COC(=O)[C@@H]1C[C@@]2(Br)c3ccccc3N(S(=O)(=O)c3ccccc3)[C@H]2N1C(=O)OC` here?
**A.** Its Potency is inconclusive [activator, full curve, poor fit].

**Q.** With `CC(C)(C)OC(=O)NCCCCCNC(=O)c1[nH]cnc1C(=O)NC1CCN(C(=O)OC(C)(C)C)CC1` as the molecule, how does the Potency read?
**A.** The Potency was inconclusive [activator, single point].

**Q.** Which Potency does the source give for `Cc1cc(OCC(=O)N(Cc2ccco2)c2c(N)n(Cc3ccccc3)c(=O)[nH]c2=O)ccc1Cl` here?
**A.** The Potency was inconclusive [activator, single point].
